Experimental data: the supplement of paper PMC7826260
The other results are listed elsewhere or left out. The data describe in vitro nicking of single-stranded DNA by Rep domains (1 h at 37 °C, 3 µM enzyme); the outer parts of the 90-letter strands are left off. A value is the log2 ratio of uncut reads to the pool without enzyme; the lower, the more was cut; hits are not called. Shares of all reads are compared; where an enzyme cuts many sequences, the uncut ones exceed 0.

Columns and labels:
Test in all cases: uncleaved DNA left, log2 of reads against the no-enzyme library (log2 ratio); higher = less cleavage (more negative = more Rep cleavage of the k-mer); sequences stand for … in CTCGTCCG…ACCGGAGA
[1] = test system: T1, Rep nickase domain of Muscovy duck circovirus
T1 sequence (protein, residues 1-111, tag omitted): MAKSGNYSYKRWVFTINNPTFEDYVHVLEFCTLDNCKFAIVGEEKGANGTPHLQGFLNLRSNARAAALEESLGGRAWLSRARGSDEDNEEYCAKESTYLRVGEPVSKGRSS
Method: (§1)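 A pool of 90-nt single-stranded DNAs with seven random bases just before the constant AC of the nick site (name = the seven bases) was cut by 3 µM recombinant His6-SUMO-tagged Rep nickase domain (300 nM DNA, 50 mM HEPES pH 8.0, 50 mM NaCl, 1 mM MnCl2, 1 h, 37 °C, three replicates). Uncut DNA was amplified and sequenced.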

[2] = test system: T2, Rep nickase domain of banana bunchy top virus
T2 sequence (protein, residues 1-94, tag omitted): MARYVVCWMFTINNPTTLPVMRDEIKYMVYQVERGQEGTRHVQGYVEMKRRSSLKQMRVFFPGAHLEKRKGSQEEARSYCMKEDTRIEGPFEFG
Method: as §1

[3] = test system: T3, Rep nickase domain of cabbage leaf curl virus
T3 sequence (protein, residues 1-116, tag omitted): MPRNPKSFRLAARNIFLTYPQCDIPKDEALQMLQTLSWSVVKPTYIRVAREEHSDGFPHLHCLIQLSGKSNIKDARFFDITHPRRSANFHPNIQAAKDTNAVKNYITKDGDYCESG
Method: as §1

[4] = test system: T4, Rep nickase domain of chickpea chlorotic dwarf virus
T4 sequence (protein, residues 1-124, tag omitted): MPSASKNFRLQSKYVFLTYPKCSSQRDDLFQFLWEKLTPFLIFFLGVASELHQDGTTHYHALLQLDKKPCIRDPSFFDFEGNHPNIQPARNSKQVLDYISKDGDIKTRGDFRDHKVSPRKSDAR
Method: as §1

[5] = test system: T5, Rep nickase domain of faba bean necrotic yellows virus
T5 sequence (protein, residues 1-98, tag omitted): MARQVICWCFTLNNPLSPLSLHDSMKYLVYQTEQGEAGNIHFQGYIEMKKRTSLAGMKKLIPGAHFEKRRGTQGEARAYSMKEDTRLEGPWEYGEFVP
Method: as §1

[6] = test system: T6, Rep nickase domain of maize striate mosaic virus
T6 sequence (protein, residues 1-117, tag omitted): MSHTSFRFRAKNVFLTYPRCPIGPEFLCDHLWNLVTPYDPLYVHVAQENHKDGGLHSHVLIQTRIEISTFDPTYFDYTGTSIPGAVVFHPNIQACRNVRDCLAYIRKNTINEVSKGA
Method: as §1

[7] = test system: T7, Rep nickase domain of porcine circovirus 2
T7 sequence (protein, residues 2-116, tag omitted): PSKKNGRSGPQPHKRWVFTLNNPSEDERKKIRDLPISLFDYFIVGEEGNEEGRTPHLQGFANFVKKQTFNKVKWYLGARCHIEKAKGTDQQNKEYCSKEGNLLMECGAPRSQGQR
Method: as §1

[8] = test system: T8, Rep nickase domain of tomato golden mosaic virus
T8 sequence (protein, residues 1-124, tag omitted): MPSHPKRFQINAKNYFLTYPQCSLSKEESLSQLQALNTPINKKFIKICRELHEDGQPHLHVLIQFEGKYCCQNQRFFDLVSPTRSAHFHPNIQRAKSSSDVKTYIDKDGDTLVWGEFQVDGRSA
Method: as §1

[9] = test system: T9, Rep nickase domain of tomato yellow leaf curl virus
T9 sequence (protein, residues 1-136, tag omitted): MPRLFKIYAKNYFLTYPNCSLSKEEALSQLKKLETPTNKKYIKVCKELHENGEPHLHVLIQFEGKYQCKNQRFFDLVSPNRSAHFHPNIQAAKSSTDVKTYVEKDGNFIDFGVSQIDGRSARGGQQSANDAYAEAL
Method: as §1

[10] = test system: T10, Rep nickase domain of wheat dwarf virus
T10 sequence (protein, residues 1-137, tag omitted): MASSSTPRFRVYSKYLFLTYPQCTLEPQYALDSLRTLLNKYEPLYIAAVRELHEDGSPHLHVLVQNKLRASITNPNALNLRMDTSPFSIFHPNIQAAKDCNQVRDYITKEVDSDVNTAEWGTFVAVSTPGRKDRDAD
Method: as §1

Sequence	uncleaved DNA left (log2) [1]	uncleaved DNA left (log2) [2]	uncleaved DNA left (log2) [3]	uncleaved DNA left (log2) [4]	uncleaved DNA left (log2) [5]	uncleaved DNA left (log2) [6]	uncleaved DNA left (log2) [7]	uncleaved DNA left (log2) [8]	uncleaved DNA left (log2) [9]	uncleaved DNA left (log2) [10]
ATTAACG	0.0793	0.108	-0.702	-0.132	0.0948	-1.11	0.274	0.084	-0.0335	0.0439
GTCCCAC	-0.02	0.093	0.256	0.87	-0.0601	1.64	0.0307	-0.0191	0.0406	0.104
GAAACAG	0.0129	0.109	0.16	0.358	0.0695	-0.242	0.191	0.0311	0.0794	0.124
CTGCCGC	0.047	-0.111	-0.279	-0.534	0.0396	-0.609	-0.0926	-0.0929	0.00491	-0.132
TGATCGT	-0.104	0.00324	-0.255	-0.63	-0.132	-0.739	-0.183	-0.0867	0.0282	-0.0772
TAGGAAA	0.0782	0.0855	0.541	1.01	0.0238	1.38	0.0441	0.21	0.0969	0.256
TGCACCC	0.000246	-0.0597	0.198	0.344	0.00183	0.272	-0.256	-0.00517	-0.0258	0.0743
TCTATCC	-0.0684	-0.0805	0.151	-0.113	0.0176	-0.212	0.0357	-0.0735	0.00929	0.013
GTAGCTA	0.0188	0.0684	0.25	0.776	-0.0176	1.32	0.0803	0.124	-0.00959	0.12
CGCGTCC	-0.00409	0.0287	-0.0069	-0.0993	0.0301	-0.305	-0.0615	-0.121	0.0595	0.0429
CAATACG	0.0272	-0.00443	-0.849	0.134	-0.0539	-1.08	0.12	-0.0829	-0.052	-0.0907
ACTCAAA	0.0841	0.129	-0.0813	0.0223	0.0589	-0.562	0.133	0.159	-0.0305	-0.0528
AATTGGC	-0.0733	-0.106	-0.594	-0.808	-0.00128	-1.32	0.0799	-0.112	-0.041	-0.122
TTTCTCA	-0.016	0.0818	0.208	-0.706	0.0271	0.0433	-0.162	-0.0591	0.163	-0.00379
TTACAAG	0.0835	-0.00024	-0.952	-1.39	0.0186	-1.33	0.0526	0.0411	-0.0287	-0.0677
GTACTAA	0.115	0.0459	0.399	0.902	0.0134	1.71	0.192	0.0357	0.0917	0.144
CTAGTAA	-0.075	-0.091	-0.188	-0.431	-0.0149	-0.87	0.0433	-0.132	0.0781	-0.173
AGAAACT	0.0441	0.0344	0.214	-1.63	0.0287	0.594	-0.203	0.0161	-0.0765	0.0192
TTAAGCA	0.0869	0.059	-0.527	-2.04	0.00386	-1.1	-0.157	-0.0322	0.0463	-0.0208
AAGTGTC	0.0416	-0.0863	-0.00803	-0.13	-0.0498	-0.2	-2.6	-0.00621	-0.0441	0.0746

Sequence	uncleaved DNA left (log2) [1]	uncleaved DNA left (log2) [2]	uncleaved DNA left (log2) [3]	uncleaved DNA left (log2) [4]	uncleaved DNA left (log2) [5]	uncleaved DNA left (log2) [6]	uncleaved DNA left (log2) [7]	uncleaved DNA left (log2) [8]	uncleaved DNA left (log2) [9]	uncleaved DNA left (log2) [10]
GGCGTAC	0.0178	-0.0452	0.395	1.06	0.0487	1.56	0.0886	0.0375	-0.01	0.0945
ATACGTA	-0.0738	-0.0968	-0.143	-0.956	0.0341	-0.598	-0.0613	0.0325	0.0535	-0.0358
TGACAGA	0.0588	0.05	0.554	1.14	0.122	1.43	0.178	0.0151	0.0397	0.147
GTACCAA	0.0216	0.15	0.289	0.82	0.0746	1.38	0.0409	0.146	0.208	0.105
TGATTTC	0.0931	0.125	0.438	0.629	0.081	0.856	0.104	0.212	0.0824	0.0966
ACACTCG	0.0548	0.0529	-0.261	0.661	0.0228	-0.267	0.29	0.0663	0.00758	0.0823
ACGCGAG	0.0841	-0.0117	-0.232	0.0576	-0.0605	-0.6	0.0436	-0.00776	0.00596	0.00447
ATTTAAA	-0.0336	-0.0321	-0.0965	-0.19	0.0353	-0.556	-0.0723	0.0695	-0.0364	0.00209
TCTCTTA	0.0132	-0.0494	0.198	-0.957	0.0333	-0.283	-0.0412	0.0923	0.0624	0.0198
AACAATC	0.0838	0.169	-0.0481	-0.231	0.0803	-0.531	0.102	-0.0377	0.0256	0.106
ACGACAA	-0.0488	-0.038	-0.0214	0.343	0.104	0.168	0.0541	-0.104	-0.0263	0.0976
GTGATAG	-0.0249	0.00145	0.0478	0.503	0.0853	0.0142	0.0723	0.0462	0.0758	-0.0318
GGGATAG	0.0801	0.106	0.871	2.12	-0.082	2.22	0.217	0.0762	-0.0228	0.121
AACTGCC	-0.0664	-0.084	-0.194	0.0503	0.0295	-0.438	-0.1	-0.158	-0.0977	-0.0292
GAGGGAT	0.04	0.0215	0.212	1.53	-0.0349	1.85	0.0599	0.149	-0.133	0.0539
CTGGAGT	0.045	-0.0228	-0.109	-0.0194	-0.0961	-0.314	0.0617	0.0339	-0.0429	-0.116
AAAGTGG	0.0827	0.024	-0.0363	-0.00337	0.0486	-0.712	0.144	0.0566	0.0232	-0.0471
TCAGTAA	0.0564	0.119	0.178	-0.209	0.146	-0.199	0.081	0.149	0.0354	-0.0174
CATAGAA	-0.00636	-0.0754	-0.0323	-0.258	-0.0679	-0.95	0.0858	-0.0178	-0.0723	-0.12
CACCAAC	-0.0168	0.0539	-0.288	-1.49	-0.114	-0.757	-0.168	-0.162	-0.139	0.0304

Sequence	uncleaved DNA left (log2) [1]	uncleaved DNA left (log2) [2]	uncleaved DNA left (log2) [3]	uncleaved DNA left (log2) [4]	uncleaved DNA left (log2) [5]	uncleaved DNA left (log2) [6]	uncleaved DNA left (log2) [7]	uncleaved DNA left (log2) [8]	uncleaved DNA left (log2) [9]	uncleaved DNA left (log2) [10]
GAAGTGT	0.123	-0.0168	-0.00207	-0.223	0.00647	0.13	0.111	0.0199	-0.0647	0.00912
GTTAGTT	-0.0414	-0.0705	0.176	0.513	-0.103	1.51	-0.0878	-0.00605	0.0324	-0.035
GTTTCAT	0.00694	0.131	0.304	0.992	-0.0363	1.84	0.129	0.0992	0.109	0.132
TAAGCGG	0.0654	0.0726	0.348	1.19	0.0305	1.3	0.198	0.155	0.00922	0.0874
AATTACG	0.0131	-0.045	-0.771	0.0325	-0.0118	-0.817	0.198	0.0288	0.0384	0.00666
GGCTGTC	0.058	0.0023	0.447	1.11	-0.0348	1.56	0.143	0.0138	-0.134	0.104
CGGGTAG	-0.132	0.128	-0.103	0.00536	0.101	-0.308	0.157	0.0527	0.133	0.00978
TGCGGAA	-0.0433	0.00957	-0.239	-0.166	0.0689	-0.5	-0.00242	-0.0112	0.0459	-0.00258
GAGTCCT	-0.353	-1.49	0.18	-1.11	-1.02	1.08	-3.25	-0.172	0.0571	-0.0371
AGGATCA	-0.0272	0.0991	0.412	0.637	-0.0395	1.01	0.0758	0.0563	0.0237	0.0968
CAGGCGT	0.187	-0.0352	-0.793	-0.569	0.0753	-0.71	0.095	-0.11	0.126	-0.0837
ATTTAGG	0.0159	0.0184	0.332	1.28	0.0387	1.24	0.065	0.0644	-0.0758	-0.0591
TAGAATC	0.0791	0.00861	0.07	-0.513	-0.11	-0.317	-0.603	0.00137	0.0605	0.0713
GAAACGG	0.0182	0.108	0.554	1.66	-0.0267	2.08	0.146	0.185	-0.0168	0.0454
CCATTAT	-0.473	0.114	-0.103	-0.949	-0.0308	-0.986	-0.86	0.0584	-0.00494	-0.1
TTAAAGG	0.00903	0.0676	0.531	1.37	-0.00229	1.55	0.055	0.117	-0.0821	-0.000699
AATAGTC	0.0191	-0.105	-0.0606	-0.326	0.0367	-0.949	0.0529	-0.016	0.00654	-0.00327
TGCGTAC	0.0173	-0.0784	-0.388	-0.342	0.0502	-0.567	0.0674	-0.062	-0.00555	-0.125
CATGTCG	-0.0069	-0.15	-0.659	0.411	-0.0654	-0.653	0.0886	-0.0679	0.0463	-0.181
ATGCTGG	-0.00212	0.0149	-0.118	0.169	0.17	-0.36	0.116	0.039	0.0863	-0.0337
